# This is one part of the list.
# B1: PX9937D-bvu-500-26-500 (Bacteroides vulgatus) (protein)
# chain: DPVSDITDLNYWKTPEQFDSFVFGLHSRFRSHSWNMFLLGEARSDVFGGIPFGGEATQGMERFPYNTLNAENPGISGFGDLYQNINQMNLFISRTLHTDVLTESARNYYLGQVYGLRAYYMYQLYRSWGDVVFTEEPSLGFEVGKLAKAATPAAEIFEQVKKDIESSLSYFGSDYTIKEKKSLWSKAATLMLKADVYLWSAHRDGGEGDARTAKNALVDIQNNISRSNLDLMDTYQGVFAYDNKGNKEIIFTIHNELFEYNLWNGNNDLFPQADYLGKFYNADGTLINTSVENNFGIMRLMVKLENFKKFLPGDTRRDVTLKDVYNKVENGKLELVGVYPHKYWGVMNGSTRVRCDDYPIYRYSDLLLMLAEAKVLLGEDPATEINRVRRRAFGDAYDASTVGFPNQEVDKRPADAVLQERLFEFMLEGKRWYDLRRFGDSYVLDYTPAEPARLLWPINQGALTNNPLLKQTVGY
# Experiments:
# Assay in all cases: glycan array binding signal (z-score within array); higher = stronger binding
# Settings in all cases: glycan notation: IUPAC condensed, linker removed
# [1] = molecular target: Neu5Ac(a2-6)GlcNAc(b1-4)GlcNAc(b1-4)GlcNAc
# Method in brief: (§1)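 Arrays were curated from the Consortium for Functional Glycomics database, 3228 in total, and kept only where the protein sequence was available. Binding is expressed as a within-array Z-score. This score was averaged across arrays of the same protein sequence at different concentrations or buffers and across linkers, and negative values can be read as non-binding.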
# [2] = molecular target: Neu5Ac(a2-8)Neu5Ac
# Method in brief: as §1
# [3] = molecular target: Neu5Ac(a2-8)Neu5Ac(a2-3)Gal(b1-3)GalNAc(b1-4)[Neu5Ac(a2-3)]Gal(b1-4)Glc
# Method in brief: as §1
# [4] = molecular target: Neu5Ac(a2-8)Neu5Ac(a2-3)Gal(b1-3)GalNAc(b1-4)[Neu5Ac(a2-8)Neu5Ac(a2-3)]Gal(b1-4)Glc
# Method in brief: as §1
# [5] = molecular target: Neu5Ac(a2-8)Neu5Ac(a2-3)Gal(b1-4)Glc
# Method in brief: as §1
# [6] = molecular target: Neu5Ac(a2-8)Neu5Ac(a2-3)Gal(b1-4)GlcNAc
# Method in brief: as §1
# [7] = molecular target: Neu5Ac(a2-8)Neu5Ac(a2-3)[Gal(b1-3)GalNAc(b1-4)]Gal(b1-4)Glc
# Method in brief: as §1
# [8] = molecular target: Neu5Ac(a2-8)Neu5Ac(a2-3)[GalNAc(b1-4)]Gal(b1-4)Glc
# Method in brief: as §1
# [9] = molecular target: Neu5Ac(a2-8)Neu5Ac(a2-8)Neu5Ac
# Method in brief: as §1
# [10] = molecular target: Neu5Ac(a2-8)Neu5Ac(a2-8)Neu5Ac(a2-3)Gal(b1-4)Glc
# Method in brief: as §1
# [11] = molecular target: Neu5Ac(a2-8)Neu5Ac(a2-8)Neu5Ac(a2-3)[Gal(b1-3)GalNAc(b1-4)]Gal(b1-4)Glc
# Method in brief: as §1
# [12] = molecular target: Neu5Ac(a2-8)Neu5Ac(a2-8)Neu5Ac(a2-3)[GalNAc(b1-4)]Gal(b1-4)Glc
# Method in brief: as §1
# [13] = molecular target: Neu5Ac(a2-8)Neu5Ac(a2-8)Neu5Ac(a2-8)Neu5Ac(a2-3)[GalNAc(b1-4)]Gal(b1-4)Glc
# Method in brief: as §1
# [14] = molecular target: Neu5Ac(a2-8)Neu5Gc(a2-3)Gal(b1-4)GlcNAc
# Method in brief: as §1
# [15] = molecular target: Neu5Ac(b2-6)Gal(b1-4)GlcNAc
# Method in brief: as §1
# [16] = molecular target: Neu5Ac(b2-6)GalNAc
# Method in brief: as §1
# [17] = molecular target: Neu5Ac9Ac(a2-3)Gal(b1-3)GlcNAc
# Method in brief: as §1
# [18] = molecular target: Neu5Ac9Ac(a2-3)Gal(b1-4)GlcNAc
# Method in brief: as §1
# [19] = molecular target: Neu5Ac9Ac(a2-6)Gal(b1-4)GlcNAc
# Method in brief: as §1
# [20] = molecular target: Neu5Gc(a2-3)Gal(b1-3)GlcNAc
# Method in brief: as §1
# [21] = molecular target: Neu5Gc(a2-3)Gal(b1-3)[Fuc(a1-4)]GlcNAc
# Method in brief: as §1
# [22] = molecular target: Neu5Gc(a2-3)Gal(b1-4)Glc
# Method in brief: as §1
# [23] = molecular target: Neu5Gc(a2-3)Gal(b1-4)GlcNAc
# Method in brief: as §1
# [24] = molecular target: Neu5Gc(a2-3)Gal(b1-4)GlcNAc(b1-3)Gal(b1-4)GlcNAc(b1-2)Man(a1-3)[Neu5Gc(a2-3)Gal(b1-4)GlcNAc(b1-3)Gal(b1-4)GlcNAc(b1-2)Man(a1-6)]Man(b1-4)GlcNAc(b1-4)GlcNAc
# Method in brief: as §1
# [25] = molecular target: Neu5Gc(a2-3)Gal(b1-4)[Fuc(a1-3)]GlcNAc
# Method in brief: as §1
# [26] = molecular target: Neu5Gc(a2-6)Gal(b1-4)GlcNAc
# Method in brief: as §1
# [27] = molecular target: Neu5Gc(a2-6)GalNAc
# Method in brief: as §1
# [28] = molecular target: Neu5Gc(a2-8)Neu5Ac(a2-3)Gal(b1-4)GlcNAc
# Method in brief: as §1
# [29] = molecular target: Neu5Gc(a2-8)Neu5Gc(a2-3)Gal(b1-4)GlcNAc
# Method in brief: as §1
# [30] = molecular target: Neu5Gc(a2-8)Neu5Gc(a2-3)Gal(b1-4)GlcNAc(b1-3)Gal(b1-4)GlcNAc
# Method in brief: as §1
# [31] = molecular target: Neu5Gc(a2-8)Neu5Gc(a2-6)Gal(b1-4)GlcNAc
# Method in brief: as §1
# [32] = molecular target: Neu5Gc(b2-6)Gal(b1-4)GlcNAc
# Method in brief: as §1
binder,measurement,setting,value
B1,glycan array binding signal (z-score),[1],0.037
same,glycan array binding signal (z-score),[2],-0.345
same,glycan array binding signal (z-score),[3],-0.051
same,glycan array binding signal (z-score),[4],-0.627
same,glycan array binding signal (z-score),[5],-0.468
same,glycan array binding signal (z-score),[6],-0.636
same,glycan array binding signal (z-score),[7],-0.284
same,glycan array binding signal (z-score),[8],0.198
same,glycan array binding signal (z-score),[9],-0.49
same,glycan array binding signal (z-score),[10],-0.293
same,glycan array binding signal (z-score),[11],0.02
same,glycan array binding signal (z-score),[12],-0.193
same,glycan array binding signal (z-score),[13],0.072
same,glycan array binding signal (z-score),[14],10.6
same,glycan array binding signal (z-score),[15],-0.299
same,glycan array binding signal (z-score),[16],0.042
same,glycan array binding signal (z-score),[17],-0.36
same,glycan array binding signal (z-score),[18],-0.486
same,glycan array binding signal (z-score),[19],-0.121
same,glycan array binding signal (z-score),[20],-0.055
same,glycan array binding signal (z-score),[21],-0.231
same,glycan array binding signal (z-score),[22],-0.135
same,glycan array binding signal (z-score),[23],-0.415
same,glycan array binding signal (z-score),[24],0.552
same,glycan array binding signal (z-score),[25],-0.703
same,glycan array binding signal (z-score),[26],-0.608
same,glycan array binding signal (z-score),[27],-0.419
same,glycan array binding signal (z-score),[28],0.105
same,glycan array binding signal (z-score),[29],-0.127
same,glycan array binding signal (z-score),[30],-0.056
same,glycan array binding signal (z-score),[31],-0.528
same,glycan array binding signal (z-score),[32],-0.259

# From the supplement of paper PMC8728848
